For 22 molecules, binding signal results are on record in publication PMC12136788.

B1: chr22:40826605:40826706:-|CDS|ENSG00000100380|unk|total|mutant (ssRNA)
RNA: GGGAGUUCUACAGUCCGACGAUCCACCAAAUUACAGGUCUAAAUAAGAGAUGGAAUUCCGGAUAAUAAACUUACUGACCCAGCCGGACACUUUUUAAAUACUAAUGAACCCUUUCUUUUCAGGAUCCAGAAGUUAUGGUGGCUCAACAGAGGAUUGAGCAUCA
B2: chr10:37949572:37952126:-|three_prime_utr|ENSG00000175395|control|control|control (ssRNA)
RNA: GGGAGUUCUACAGUCCGACGAUCUAAUCCUUCAAAACAAUCAGAUAAUUCACACAAGAGGUACACCUUAUGAAUCGCAUCAAUAGAGGGAAAUUUUCAGCUACAAUCUUUGCUCUCUCUGUGUAUCAGCAAAUACAUAGAGAGCAACAGAGGAUUGAGCAUCA
B3: chr4:100187679:100188167:-|CDS|ENSG00000145358|control|control|control (ssRNA)
RNA: GGGAGUUCUACAGUCCGACGAUCACACUUGUGUUUAAGCAGGAGAACUGCUCAUGGACUAGCUUCAGGGACUUUUUCUUUAGUAGAGGUCGCUUCUCCUCUGGUUUCAGGAGAACUCUGAUCCUCAGCUCAGGAUUUCGACUUCAACAGAGGAUUGAGCAUCA
B4: chr15:59031169:59031386:+|CDS|ENSG00000157450|unk|FALSE|unique (ssRNA)
RNA: GGGAGUUCUACAGUCCGACGAUCACACCAAGUGAUGAAGAUAAUGAUUCCUCUUUUAGUGAUUGUCUUUCUUCUCCUUCAUCUAGUCUGCAUUUUGGAGAUUCUGAUACUGUGACUUCAGAUGAGGAUAAAGAAGUCUCUGUACAACAGAGGAUUGAGCAUCA
B5: chr1:215620365:215620495:+|CDS|ENSG00000136636|unk|total|mutant (ssRNA)
RNA: GGGAGUUCUACAGUCCGACGAUCGGUUUUUCAGAAUCCAAGAAAAGGUCAUCAGAAGAUGAAAAUGAAAAUAAAACCGAGUUCCGGAAGAAAGGAGGAUUUGAAGGGGGAGGAUUCCUUGGAAGAAAGAAAGUUCCCUAUCUGCAACAGAGGAUUGAGCAUCA
B6: chr12:14497711:14497812:+|CDS|ENSG00000171681|unk|total|mutant (ssRNA)
RNA: GGGAGUUCUACAGUCCGACGAUCACAGCGUCUGCCCCCAGAAGCUGCCAGCACAUCUCUGCCUCAGAAGCCACACUUGAAGUCCGCACGCGUUCAGAGUCAAAAUGGCACCGUACUGUCAUGGAGUGUCCUGGAGGUGGAUCGCAACAGAGGAUUGAGCAUCA
B7: chr13:113500007:113500108:+|CDS|ENSG00000150403|unk|FALSE|unique (ssRNA)
RNA: GGGAGUUCUACAGUCCGACGAUCGAAGAGGCCAAUUCUAAGCAAAAUAUAACAAAACGAGAAGUGGAGGAUGACUUGGGUCUUAGCAUGCUGAUUGACUCCCAGAACAACCAGUAUAUUUUGACCAAGCCCAGAGAUUCAACCCAACAGAGGAUUGAGCAUCA
B8: chr6:122458524:122458701:-|CDS|ENSG00000111897|unk|FALSE|unique (ssRNA)
RNA: GGGAGUUCUACAGUCCGACGAUCGGAAGUGCCCCGUGUUUGCUAUGCCGAUGCUGUCCUAGUGGAAACAACUCCACUGUAACUAGAUUGAUCUAUGCACUUUUCUUGCUUGUUGGAGUAUGUGUAGCUUGUGUAAUGUUGAUACAACAGAGGAUUGAGCAUCA
B9: chr7:13894654:13894755:-|3pUTR|ENSG00000006468|msi1|FALSE|unique (ssRNA)
RNA: GGGAGUUCUACAGUCCGACGAUCUAUUCUCUUUCAUGCUGAAUUUACUAUGACCAUUUAUAAGCAGUGCAGUUAACUACAGAUAGCAUUUCAGGACAAAAUAGAUGACUCAAACCAUUUAUUGCUUAAAAAAUAGCUUACGCCCAACAGAGGAUUGAGCAUCA
B10: chr10:74118286:74118577:+|3pUTR|ENSG00000035403|msi1|total|mutant (ssRNA)
RNA: GGGAGUUCUACAGUCCGACGAUCGUAUUCUCAAACACAGUUACACUUGUGCACCCUCUAUCCCAACCGGCAGACUGGGUUUCCCGCCCAUGGACUUCACAUAAGCUCAGAAUCCAAGUGAACACCCGCCAGACACUCUGCUCUCAACAGAGGAUUGAGCAUCA
B11: chrX:100674576:100674677:+|3pUTR|ENSG00000102359|msi1|FALSE|bound_elsewhere (ssRNA)
RNA: GGGAGUUCUACAGUCCGACGAUCUUGCAAUCCACACCAAAUCAAUCUUUGAAAACAUUCCUCCAUUCGGUUCAUACAUACAGUAGAAACCACUGUGGCUGCCCUUAAUCCAGUGUGCUUAUAGGAAAUCAGUUAGCAGCUGACCAACAGAGGAUUGAGCAUCA
B12: ENSG00000033178:stop:overlap|stop_codon|ENSG00000033178|stop_codon|NA|stop_codon (ssRNA)
RNA: GGGAGUUCUACAGUCCGACGAUCCUAUUGAAAUUUAUGGCUGUCCGAAUAUUUGUUUGUUAAUACAUAAGUGUUCUGUAUAUUAGUAUUCUCUUAUCCUUCACAUCCAGCUUUGCUACUCUGUGGCAUUAGACAACUUUUUUCCAACAGAGGAUUGAGCAUCA
B13: chrX:48700291:48700392:+|CDS|ENSG00000101945|unk|FALSE|unique (ssRNA)
RNA: GGGAGUUCUACAGUCCGACGAUCGCUCCGUCGCUGGGAGCAGGAGCUCAAUGCCAAGCGCAGCCAUCUGGGACGCAUCACUGUAGAGAAUGAGGUGGACCUGGACGGCCCUCCGCGGGCCUUCGUGUACAUCAAUGAGUACCGCAACAGAGGAUUGAGCAUCA
B14: chr10:63621301:63621396:+|3pUTR|ENSG00000165476|msi1_unk|total|mutant (ssRNA)
RNA: GGGAGUUCUACAGUCCGACGAUCUGUAAGAUAAUAAAGCCGGUUUUAUAUAUUCUUUAAAUUUUUACUUAUAUAAUACUUUCCCGUUUUUCCACCAUCAGCUGAAAGUUUUUGAAACAAAUAUUUGAAAACCAGGUAUCCACACAACAGAGGAUUGAGCAUCA
B15: ENSG00000124766:be:win_851|CDS|ENSG00000124766|bound_else_gene|NA|bound_elsewhere_windowed (ssRNA)
RNA: GGGAGUUCUACAGUCCGACGAUCCGGGCAAGCACCUGGCGGAGAAGAAGGUGAAGCGCGUCUACCUGUUCGGCGGCCUGGGCACGUCGUCGUCGCCCGUGGGCGGCGUGGGCGCGGGAGCCGACCCCAGCGACCCCCUGGGCCCAACAGAGGAUUGAGCAUCA
B16: chr1:169376695:169376796:+|CDS|ENSG00000117475|unk|total|mutant (ssRNA)
RNA: GGGAGUUCUACAGUCCGACGAUCUCUUCAGCCCGGGAAAAUGCUCACUGAAAAAGCAAUGGAAGUUAAAGCUGUAAGAAUAUCCGUUCCCAAAGCUGCUAUAACUCAUGAUAUCCCCAACAAAAAUACAAAGGUUAAGUCUCUCAACAGAGGAUUGAGCAUCA
B17: chr2:99394746:99394872:+|CDS|ENSG00000158417|unk|FALSE|unique (ssRNA)
RNA: GGGAGUUCUACAGUCCGACGAUCGAUGUGAGAAUUGAACGAGAUGCACAAGAAAUGGCUGAUAGUUUAGGAGUUAGAAUUUUUAGUGCAGAAAUUAUUUAUCAUUUAUUUGAUGCCUUUACAAAAUAUAGACAAGACUACAAGCAACAGAGGAUUGAGCAUCA
B18: ENSG00000150347:stop:overlap|stop_codon|ENSG00000150347|stop_codon|NA|stop_codon (ssRNA)
RNA: GGGAGUUCUACAGUCCGACGAUCAUCCUCAAGCUGCCUUUCCAUCUUCCCAGCUGUCAUCCGUGCACCCCAGUACAAAACUGUAGGCUCAGCUCUGCCCAGCAGUCCAAAGCGGCAUGGCCAACAGAGCUUCACUCCUUACCCCAACAGAGGAUUGAGCAUCA
B19: chr3:170996346:170998103:-|three_prime_utr|ENSG00000163581|control|control|control (ssRNA)
RNA: GGGAGUUCUACAGUCCGACGAUCGGAAAUUGCUGCAGAAUUCCAAAAGAAGAGUGGCUCAGCCCACAGGCCAAAAGCUGCUGUAGAAAUGAAAUUCCUAGGAGCUACAGAGACUGUGUAAAAAAAAAACCCUGCUUUUUGACACAACAGAGGAUUGAGCAUCA
B20: chr1:28768968:28769069:+|3pUTR|ENSG00000198492|msi1|total|mutant (ssRNA)
RNA: GGGAGUUCUACAGUCCGACGAUCGACUGCAGCAACGGUUGCAUCUGCAUAUCCUAAGAGGAAAAAAUGACCUUCAAGAGAAUCCGGACUUUUUUCUUAAUUUCACUGACUUCAGAGACGAUUGCAGACUUGCAGUUUAAGUAUCAACAGAGGAUUGAGCAUCA
B21: chr1:71064632:71064733:-|3pUTR|ENSG00000132485|msi1|total|mutant (ssRNA)
RNA: GGGAGUUCUACAGUCCGACGAUCGCUAAGACAGGAUUACCCCGGCUUGCCUGAACUUUGGGCAUGGAAGAAAGACUGGAAACCCGUUGGAAACAACAUACUUAUGGAAAAGAAAGUCAGCCUUUUUAUGCUGUUAACAGAUGUCAACAGAGGAUUGAGCAUCA
B22: chr5:178210945:178211047:+|3pUTR|ENSG00000197451|unk|total|mutant (ssRNA)
RNA: GGGAGUUCUACAGUCCGACGAUCCUGCUGCCGCUCUGCAGCCUGGACCUGUGGACCCUGGUUGUAAAGAGUAAAUUGUAUCUCCGGAAACCAGUGUCACCUUUUUUUCACCUUUUAAUUUUAUAUUAUUUGCGUCAUACAUUUCAACAGAGGAUUGAGCAUCA

Some of the results follow.

For the experiment, the target named is MSI1 full-length (mouse, UniProt Q61474 1-362). Kind of experiment: nsRBNS (natural sequence RNA bind-n-seq); RBNS binding buffer (assumed for nsRBNS): 25 mM Tris pH 7.5, 150 mM KCl, 3 mM MgCl2, 0.01% Triton X-100, 500 ug/ml BSA, 20 U/ml SUPERase-In, 4 C; UNK is unkempt and MSI1 is Musashi-1; names of the RNAs are library labels; protein concentration not given here; high values mean tight binding.
Sequence of UniProt Q61474 (Q61474 whole entry): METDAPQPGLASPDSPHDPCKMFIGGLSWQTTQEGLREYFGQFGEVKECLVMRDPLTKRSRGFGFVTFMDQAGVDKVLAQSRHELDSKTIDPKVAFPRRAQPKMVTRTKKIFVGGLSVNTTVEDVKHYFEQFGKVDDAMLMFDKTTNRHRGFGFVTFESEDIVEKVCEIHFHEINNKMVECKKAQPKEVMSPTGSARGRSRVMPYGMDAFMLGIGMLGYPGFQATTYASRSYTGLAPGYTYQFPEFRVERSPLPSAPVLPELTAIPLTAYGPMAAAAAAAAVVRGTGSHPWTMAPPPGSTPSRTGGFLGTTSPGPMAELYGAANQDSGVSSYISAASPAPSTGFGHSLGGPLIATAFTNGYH
Turning to B1, the binding signal was found to be 0.5 enrichment R.

The molecule B2 gave a binding signal of 0.445 enrichment R.

The molecule B3 came in with a binding signal of 0.398 enrichment R. Take B4: the binding signal came out at 0.352 enrichment R. B5: the binding signal was determined as 0.468 enrichment R. B6 gave a binding signal of 0.412 enrichment R. Turning to B7, the binding signal was found to be 0.529 enrichment R. For the molecule B8, the binding signal amounted to 1.09 enrichment R. The figure for B9 is 2.99 enrichment R. For B10, the binding signal is 0.409 enrichment R. In the case of B11 it was 6.78 enrichment R; in that of B12, 0.607 enrichment R; in that of B13, 0.398 enrichment R. B14 registered a binding signal of 1.51 enrichment R.

For the molecule B15, the binding signal is 0.287 enrichment R. For the molecule B16, the binding signal came to 0.307 enrichment R. In the case of B17 it was 35 enrichment R. In the case of B18 it was 0.496 enrichment R; in that of B19, 0.548 enrichment R. Consider B20, for which the binding signal stood at 0.249 enrichment R. In turn, B21 showed a binding signal of 0.388 enrichment R. B22 came in with a binding signal of 0.47 enrichment R.
